Laboratory results: publication PMC4336329 (PLoS ONE, 2015)
Hit rate of the full screen: of about 310,000 compounds, about 14,000 (4.5%) showed an effect of 50% or more. The effect is printed as a negative number. This is one part of the list.

target: human ether-à-go-go-related gene (hERG) potassium channel (human, UniProt Q12809); test: primary screen, population patch clamp on CHO cells stably expressing hERG
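Note: peak tail current of the secondary pulse compared with the same well before compound.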

Sequence of human ether-à-go-go-related gene (hERG) potassium channel (Q12809 whole entry, looked up): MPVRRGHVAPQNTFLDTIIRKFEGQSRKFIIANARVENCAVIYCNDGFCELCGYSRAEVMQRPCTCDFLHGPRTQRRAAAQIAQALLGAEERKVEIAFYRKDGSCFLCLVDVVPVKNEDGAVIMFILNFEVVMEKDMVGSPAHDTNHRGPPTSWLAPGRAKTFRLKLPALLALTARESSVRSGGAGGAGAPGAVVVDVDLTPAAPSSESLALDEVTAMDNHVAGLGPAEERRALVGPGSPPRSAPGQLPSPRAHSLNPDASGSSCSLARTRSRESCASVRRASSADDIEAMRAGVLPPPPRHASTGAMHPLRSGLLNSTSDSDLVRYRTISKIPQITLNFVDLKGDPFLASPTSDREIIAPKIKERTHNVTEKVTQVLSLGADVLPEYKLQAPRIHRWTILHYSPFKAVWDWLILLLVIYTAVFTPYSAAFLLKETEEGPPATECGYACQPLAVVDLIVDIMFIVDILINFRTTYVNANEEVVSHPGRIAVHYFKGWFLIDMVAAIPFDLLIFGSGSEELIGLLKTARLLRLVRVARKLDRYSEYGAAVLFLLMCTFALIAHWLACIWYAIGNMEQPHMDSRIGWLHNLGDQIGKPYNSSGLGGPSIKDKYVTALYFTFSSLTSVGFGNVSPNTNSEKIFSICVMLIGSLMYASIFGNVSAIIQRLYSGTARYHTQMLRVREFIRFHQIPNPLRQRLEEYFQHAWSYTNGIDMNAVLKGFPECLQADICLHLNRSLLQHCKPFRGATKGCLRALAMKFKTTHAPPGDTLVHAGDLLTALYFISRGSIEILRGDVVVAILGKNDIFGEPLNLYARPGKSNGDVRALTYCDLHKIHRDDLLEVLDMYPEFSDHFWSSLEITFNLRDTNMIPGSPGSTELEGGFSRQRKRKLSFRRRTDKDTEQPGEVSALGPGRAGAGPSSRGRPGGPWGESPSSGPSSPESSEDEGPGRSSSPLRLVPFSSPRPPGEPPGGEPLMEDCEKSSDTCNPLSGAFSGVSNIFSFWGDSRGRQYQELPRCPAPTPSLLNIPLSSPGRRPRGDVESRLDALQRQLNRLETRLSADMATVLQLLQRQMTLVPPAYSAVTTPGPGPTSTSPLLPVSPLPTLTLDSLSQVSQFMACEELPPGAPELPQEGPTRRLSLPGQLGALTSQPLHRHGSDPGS

Row | SMILES | hERG current change (%, negative = inhibition) at 10uM
1 | Cc1nnsc1Sc1ccccc1 | 1.85%
2 | COc1cc(SC)ccc1C(=O)Nc1ccc2ncccc2c1 | -8.23%
3 | CCCCC(CC(O)COCC(C)C)C(=O)NN (stereo not drawn) | 13.2%
4 | C[C@H](NC(=O)c1ccco1)C(=O)NC1CCCCCC1 | -0.515%
5 | Cc1ccc(C)c(N(C(=O)CNC(=O)c2ccco2)C(C(=O)NC2CCCCC2)c2cccnc2)c1 (stereo not drawn) | 15.3%
6 | COc1cc(C#N)ccc1OCC(=O)N1CCc2ccccc2C1 | -39%
7 | Cn1cc2c(=O)n(/N=C/c3ccccc3)cnc2n1 | -13.2%
8 | CCOC(=O)C1CCN(S(=O)(=O)c2ccc(OC)c(OC)c2)CC1 | -13.9%
9 | O=C1CCc2cc(S(=O)(=O)N3CCCC3C(=O)N3CCN(c4ccccc4)CC3)ccc2N1 (stereo not drawn) | -34.4%
10 | O=C(Nc1ccccc1)NC1(C(=O)NCc2ccco2)CCCCC1 | 15.5%
11 | CC(C)C(C(=O)Nc1cccnc1)N1C(=O)c2ccccc2C1=O (stereo not drawn) | -7.01%
12 | NS(=O)(=O)c1ccc2nc(NC(=O)c3ccncc3)sc2c1 | 13.9%
13 | COc1ccc(OC)c(NS(=O)(=O)c2ccc(NC(C)=O)cc2)c1 | 1.96%
14 | Cc1cc(C(=O)OCC(=O)c2c(N)n(C)c(=O)n(C)c2=O)c(C)n1-c1ccccc1 | 6.1%
15 | COc1cc(OC)cc(C(=O)N/N=C/c2ccc(OC)c(COc3ccc(F)cc3)c2)c1 | 6.62%
16 | Cc1c(N=C/C=C/c2ccccc2)cnn1C | -12.8%
17 | O=C(Nc1nc(-c2cc(F)ccc2F)cs1)C1=NN(c2ccccc2)C(=O)CC1 | 8.68%
18 | CC1(C)NC(=O)N(CC(O)COc2ccccc2C(=O)Nc2ccccc2)C1=O (stereo not drawn) | -6.2%
19 | CCC(C)N=CC1=C(O)C(C(=O)OC)C(C)(C)CC1=O (stereo not drawn) | -5.35%

Row | SMILES | hERG current change (%, negative = inhibition) at 10uM
20 | COc1ccccc1C(=O)NC(CCSC)C(=O)NCC(c1cccs1)N1CCOCC1 (stereo not drawn) | -24.3%
21 | CC(C)(O)C#CC#CCN1CCOCC1 | 3.98%
22 | CCc1nc2ccc(Br)cc2c(=O)n1-c1ccccc1C(F)(F)F | -0.781%
23 | NC(=O)COc1ccccc1C(=O)O | 23.5%
24 | Cc1cc(C)n(-c2nnc(NC34CC5CC(CC(C5)C3)C4)nn2)n1 | 4.94%
25 | CC(C)C[C@@H](CN=[N+]=[N-])N1CCN(CC(C)C)CCC1=O | -3.55%
26 | Cc1cccc(OCCC(=O)Nc2ccc(Cl)cc2F)c1 | 7.13%
27 | Cc1cc(C)n2nc(C(=O)Nc3ccc(S(=O)(=O)N(C)C)cc3)nc2n1 | -2.93%
28 | Cc1cccc(OCc2nc(C#N)c(NCc3ccc4c(c3)OCO4)o2)c1 | -2.03%
29 | O=C(CCCCCN1C(=O)C2C3C=CC(C3)C2C1=O)Nc1nccs1 (stereo not drawn) | -4.56%
30 | CCn1cc[n+](C)c1P(c1ccccc1)c1ccccc1.F[B-](F)(F)F | -5.84%
31 | COc1ccc(CCNC(=O)CCc2ccc(S(=O)(=O)NC(C)C)cc2)cc1OC | -2.35%
32 | COc1ccc(N2CCN(c3nc4c(c(=O)[nH]c(=O)n4C)n3Cc3cccc(C)c3)CC2)cc1 | -14.2%
33 | Cc1ccc2c(c1)C1CN(C)CCC1N2S(=O)(=O)c1cccc(C(F)(F)F)c1 (stereo not drawn) | -40.1%
34 | c1ccc(-c2noc(CN3CCN(c4cnccn4)CC3)n2)cc1 | -45.4%
35 | O=C(CN1C(=O)NC2(CCc3ccccc32)C1=O)Nc1ccccc1OC(F)F (stereo not drawn) | 11.8%
36 | COc1cccc(/C=N/NC(=O)c2cnccn2)c1 | 3.35%
37 | CC1(C)CC2CC(C)(CN2S(=O)(=O)c2cccc(C(=O)O)c2)C1 (stereo not drawn) | -7.22%
38 | CN(C)c1ccc(C(C(=O)NC2CCCC2)N(Cc2cccnc2)C(=O)c2snc(C(N)=O)c2N)cc1 (stereo not drawn) | -10.7%

Row | SMILES | hERG current change (%, negative = inhibition) at 10uM
39 | CCc1cc(=O)oc2c(CN3CCN(C)CC3)c(O)c(Cl)cc12 | -1.57%
40 | O=C(COC(=O)/C=C/c1ccc(Br)o1)NCCCN1CCCC1=O | -16.8%
41 | CCC(C)(C(=O)NC1CCCC1)N(C)C(=O)Cc1c[nH]c2ccccc12 (stereo not drawn) | 2.1%
42 | COC(=O)c1ccccc1NC(=O)CN1C(=O)c2ccccc2C1=O | 2.69%
43 | CCOc1ccc(S(=O)(=O)NCCC(=O)NCc2ccco2)cc1 | -0.369%
44 | COc1ccc(-c2nn(C)c(=O)c3ccccc23)cc1CNS(C)(=O)=O | -4.38%
45 | C=C(C)CN(CC)C(=O)Cn1cnc2c(oc3ccccc32)c1=O | 0.0911%
46 | CCN1C(=O)C(CC(=O)Nc2ccc(Cl)cc2)N(NC(=O)c2ccncc2)C1=S (stereo not drawn) | 7.98%
47 | O=C(C1CCCCC1)N1CCN(c2ccccc2F)CC1 | -7.04%
48 | CCOC(=O)N1CCN(c2c(-c3ccc(C)c(C)c3)c(=O)c2=O)CC1 | -2.4%
49 | COc1cccc(NC(=O)c2cc(CN3C(=O)c4ccccc4C3=O)ccc2OC)c1 | -7.23%
50 | Cc1cccc(NC(=O)N(Cc2cc3cc(C)ccc3[nH]c2=O)CC2COCCO2)c1 (stereo not drawn) | 6.43%
51 | CCc1ccc(-c2c(C)sc(NC(=O)C3CCC3)c2C#N)cc1 | 15.9%
52 | O=C(O)C1CCCCC1C(=O)Nc1ccc(-c2ccccc2)cc1 (stereo not drawn) | 8.19%
53 | COc1cc2c(cc1OC)C(C(=O)NCC1COc3ccccc3O1)C(c1cccnc1)N(C)C2=O (stereo not drawn) | -12.6%
54 | CC1Cc2ccccc2N1Cc1cccc([N+](=O)[O-])c1 (stereo not drawn) | 13%
55 | CCn1cc(CN2CCCC(CNC(=O)COc3ccccc3OC)C2)c(C)n1 (stereo not drawn) | 4.58%
56 | CC(=O)C1=C(O)C(=O)N(CC#N)C1c1cccs1 (stereo not drawn) | 21%
57 | O=C(c1cc(Br)ccc1Cl)N1CCC2(CC1)OCCO2 | -11.4%
